The list shows a part of the results.

The record followed here is paper PMC12136788.

T1: UNK ZnF1-3 (human, UniProt Q9C0B0 31-174)
T1 sequence: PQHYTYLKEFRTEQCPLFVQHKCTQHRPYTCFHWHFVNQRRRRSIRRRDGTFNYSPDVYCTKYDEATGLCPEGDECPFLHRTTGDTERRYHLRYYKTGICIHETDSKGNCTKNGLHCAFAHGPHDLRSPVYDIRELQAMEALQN

B1: chr1:6284582:6284583:-_ENSG00000116237_ENST00000343813|hu_mus|FALSE|FALSE (ssRNA)
RNA: GGGAGUUCUACAGUCCGACGAUCGAGGCUCAGAGUCCCUUGGAAUCUACACUGCUAUUUUUAUAAAAUUGGUGUGUAAAUGUGAUUAAAUGUAUGAGGAGCCGAGGGCAGAAGUCUUCAGAGCUAAUGCAGAUGCUCAUGCACCAACAGAGGAUUGAGCAUCA
B2: chr10:112362727:112362728:-_ENSMUSG00000074748_ENSMUST00000099276|mus_mus|motif|central (ssRNA)
RNA: GGGAGUUCUACAGUCCGACGAUCGAUCCCAGCAUGCGAUAAUGCCAGGUAGUGGCCCCUGGGCAUGCGAUGGUGGGAACGGAUUUACUGAAGAAAAAAGCACAAACCACAGAAAAUGUAAAGAACCCCUUCCCCCUAUACACACAACAGAGGAUUGAGCAUCA
B3: chr18:10010065:10010066:-_ENSMUSG00000047879_ENSMUST00000092096|mus_mus|motif|central (ssRNA)
RNA: GGGAGUUCUACAGUCCGACGAUCCAGAAUAAUAGGUGGGAUACUAGAAGAAGUUUUAUCCAUGGAAUCAAACAAAUCUCGGAGAGCUGCAGUAAUAUACUGUGCUGAAGCCAUUUCUCCUGAAGCUCUCAACGCACCUGCAUACAACAGAGGAUUGAGCAUCA
B4: 43183801_43183921_2363_3pUTR_ENSG00000136448_ENST00000258960|human|control|control (ssRNA)
RNA: GGGAGUUCUACAGUCCGACGAUCGAUGUUACAAGGAGGUCCAAGGGCCUCUUCAAACUGCAUCAUCCCAGGCAGUGGAAAAGCAAAAUCUCACAGGGGACUCAUCCCUAUAAGGUUGGCAACAACUGGCUAAAGAGCCCUUUUCAACAGAGGAUUGAGCAUCA
B5: chr5:143665068:143665069:-_ENSMUSG00000029580_ENSMUST00000100497|mus_hu|FALSE|FALSE (ssRNA)
RNA: GGGAGUUCUACAGUCCGACGAUCUACAUAAUUUACACGAAAGCAAUGCUAUCACCUCCCCUGUGUGGACUUGGGAGAGGACUGGGCCAUUCUCCUUAGAGAGAAGUGGGGUGGCUUUUAGGAUGGCAAGGGACUUCCUGUAACCAACAGAGGAUUGAGCAUCA
B6: 13808297_13816788_1590_CDS_ENSMUSG00000006586_ENSMUST00000098257|mouse|control|control (ssRNA)
RNA: GGGAGUUCUACAGUCCGACGAUCACUUGCUUUCCGGCCACAGUUCCAGCAACUCUCACUGGAGUCUUCCUGCUGGUUGAUGACUGCUAGAGCAUCUUCUGCUGCCUGCCUCUUCGCUUCAGCCACCGUGCGUUCCAUCUUGGCCAACAGAGGAUUGAGCAUCA
B7: chr3:193353255:193353256:+_ENSG00000198836_ENST00000392438|hu_hu|FALSE|FALSE (ssRNA)
RNA: GGGAGUUCUACAGUCCGACGAUCAAUCAAAGAUUUCUUAAGCUUUCUAUGAUGAAUGCCUUUGUCAUCUUUCUGCAAUACUAAUUUUCUCAAUUCUUUGUUCUCCUUUUCUAAUCGUUCCAAGAUUCUCUGAUACUUCAACUGCAACAGAGGAUUGAGCAUCA
B8: chr5:57752887:57752888:-_ENSG00000145632_ENST00000274289|hu_mus|FALSE|FALSE (ssRNA)
RNA: GGGAGUUCUACAGUCCGACGAUCCUUAAAGAAAUUCUUGGCUGGGCUUGACAAGUGGAAAUCUGGAACUGUGUGGCAACAGCUGGAAGAGAGUCUGUCCGGAGUGAAACCCUGCAGGAAGAAGUCAUGCCGAAUGAUGUCAUCCAACAGAGGAUUGAGCAUCA
B9: chr7:148072430:148072431:+_ENSMUSG00000025487_ENSMUST00000026560|mus_mus|FALSE|FALSE (ssRNA)
RNA: GGGAGUUCUACAGUCCGACGAUCAAAAGUAAGAGCCACAUUAGGAUCGGUCAUCUGUCUAACCACAUGGAGAAUUAUUUCUACCAGGGACAGAGGGUUUACCCUGUGCUCAAACUCACUGAUGAAGUUUUCAUAAAGCUUAAUCAACAGAGGAUUGAGCAUCA
B10: 49392233_49392453_1748_CDS_ENSMUSG00000069495_ENSMUST00000092123|mouse|control|control (ssRNA)
RNA: GGGAGUUCUACAGUCCGACGAUCAGAAGAAAAGUCUAUAGUUUGGGAAGAGCUUGAAAACCCGUUCAGCAUCUCAGGGUCUAUCUGUUUCAGGACGGGGUCAUGUUCUGUGGAUAUUCGGUCCAUUAUGACCCUGCCACCUCUCAACAGAGGAUUGAGCAUCA
B11: 66833482_66833694_1988_CDS_ENSG00000184588_ENST00000423207|human|control|control (ssRNA)
RNA: GGGAGUUCUACAGUCCGACGAUCCUUCGUUUCUACCAUUGUCUUCAGGUCUGCCAGCAGGCUCAUAUGUUUAGACAUAUCAGUUGCUAACACCAUGUCAAUAACCAUCUUCCUGAGUGUCUGACGCUGCUUCUUGGUGAGAUUCAACAGAGGAUUGAGCAUCA
B12: 112921203_112921323_768_CDS_ENSMUSG00000036862_ENSMUST00000078482|mouse|control|control (ssRNA)
RNA: GGGAGUUCUACAGUCCGACGAUCAUACCCUUGGGUUCCUAGGCGGCCGGCAUCUGCAUCACGAGCAGGCUCCAGUGGGUAACGUGUACCAAGAGCUGUAUGCUCAGGUAUCUGCAGGGCUGCCCGAGCCUGAGGGAAAGCUGGCAACAGAGGAUUGAGCAUCA
B13: chr9:37780659:37780660:-_ENSG00000107371_ENST00000396521|hu_hu|motif|central (ssRNA)
RNA: GGGAGUUCUACAGUCCGACGAUCGGUUCACCUGAAAAAACCCAUAGUUUUUUGCCUCAACUGACCUGUAAAAAAGUCCACCGGUAUCAACUUUCUGCCAAUCUGGAGAAGAUCUGUUUUCUUUGAUCUGACGUCAUGUGUUCACAACAGAGGAUUGAGCAUCA
B14: 64765874_64765994_1549_3pUTR_ENSMUSG00000059920_ENSMUST00000076991|mouse|control|control (ssRNA)
RNA: GGGAGUUCUACAGUCCGACGAUCUAGUCACUAAAUAAAAUGAAAACAUUACCUAAAGUUUCUAAGGCACACAGGCAUCUACAAUAUCUCAAGUGGGAUUUAUUUGGUGGACCGCAAUAAGUUCUCAGAACAUUUGCUGUAACUCAACAGAGGAUUGAGCAUCA

The target in this experiment is T1, UNK ZnF1-3. Nature of the experiment: nsRBNS (natural sequence RNA bind-n-seq); RBNS binding buffer (assumed for nsRBNS): 25 mM Tris pH 7.5, 150 mM KCl, 3 mM MgCl2, 0.01% Triton X-100, 500 ug/ml BSA, 20 U/ml SUPERase-In, 4 C; UNK is unkempt and MSI1 is Musashi-1; names of the RNAs are library labels; protein concentration not given here; high values mean tight binding.
B1 registered a binding signal of 1.51 enrichment R.
Then B2, with 1.58 enrichment R.
B3: the binding signal turned out to be 1.21 enrichment R.
Then B4, with 1.12 enrichment R; and B5, with 1.44 enrichment R; and B6, with 0.758 enrichment R.
In the case of B7, the binding signal was 0.485 enrichment R.
Then B8, with 1.41 enrichment R; and B9, with 1.64 enrichment R; and B10, with 0.574 enrichment R.
For B11, the binding signal is 0.476 enrichment R.
For B12, the binding signal was determined as 0.349 enrichment R.
B13 displayed a binding signal of 0.954 enrichment R.
Turning to B14, the binding signal came to 1.29 enrichment R.
